# Source: US20140341881A1
# Target: trypsin (human) (UniProt P07477)
# Test: cell-based or functional assay
substance,measurement,value
"AATWT (recombinant wild type alpha-1-antitrypsin) (a stretch of the chain, chain not printed)",% Inhibition,100%
same,Percentage inhibition,100%
